Source: paper PMC9911399, “Two distinct binding modes provide the RNA-binding protein RbFox with extraordinary sequence specificity”
Residue numbers refer to the chain shown, from its start. The list shows a part of the results.

T1: RBFOX1 RRM RbFoxmut (Fox-RRM*) (Homo sapiens, UniProt Q9NWB1 109-208, R118D;E147R;N151S;E152T)
T1 sequence: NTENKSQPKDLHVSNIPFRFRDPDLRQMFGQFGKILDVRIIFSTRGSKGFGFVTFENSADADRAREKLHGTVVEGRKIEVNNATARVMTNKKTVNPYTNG

B1: GUUAGGC (DNA:RNA)
RNA: GGGAGACCGGAAUUCAGAUUGUCCGUUAGGCUUAAAUCCCGUCGUAGCCACCA
DNA 1: CAATCTGAATTCCGGTCTCCC
DNA 2: TGGTGGCTACGACGGGATT
B2: GGAACUC (DNA:RNA)
RNA: B1 RNA with U26G, U27A, G29C, G30U
DNA 1: CAATCTGAATTCCGGTCTCCC
DNA 2: TGGTGGCTACGACGGGATT
B3: UUUGCCU (DNA:RNA)
RNA: B1 RNA with G25U, A28G, G29C, G30C, C31U
DNA 1: CAATCTGAATTCCGGTCTCCC
DNA 2: TGGTGGCTACGACGGGATT
B4: UCAGCGG (DNA:RNA)
RNA: B1 RNA with G25U, U26C, U27A, A28G, G29C, C31G
DNA 1: CAATCTGAATTCCGGTCTCCC
DNA 2: TGGTGGCTACGACGGGATT
B5: CCACCGC (DNA:RNA)
RNA: B1 RNA with G25C, U26C, U27A, A28C, G29C
DNA 1: CAATCTGAATTCCGGTCTCCC
DNA 2: TGGTGGCTACGACGGGATT
B6: AUGAGUG (DNA:RNA)
RNA: B1 RNA with G25A, U27G, G30U, C31G
DNA 1: CAATCTGAATTCCGGTCTCCC
DNA 2: TGGTGGCTACGACGGGATT
B7: ACAUGGU (DNA:RNA)
RNA: B1 RNA with G25A, U26C, U27A, A28U, C31U
DNA 1: CAATCTGAATTCCGGTCTCCC
DNA 2: TGGTGGCTACGACGGGATT
B8: CGAGGGG (DNA:RNA)
RNA: B1 RNA with G25C, U26G, U27A, A28G, C31G
DNA 1: CAATCTGAATTCCGGTCTCCC
DNA 2: TGGTGGCTACGACGGGATT
B9: CCCCGGA (DNA:RNA)
RNA: B1 RNA with G25C, U26C, U27C, A28C, C31A
DNA 1: CAATCTGAATTCCGGTCTCCC
DNA 2: TGGTGGCTACGACGGGATT
B10: UGGUGCU (DNA:RNA)
RNA: B1 RNA with G25U, U26G, U27G, A28U, G30C, C31U
DNA 1: CAATCTGAATTCCGGTCTCCC
DNA 2: TGGTGGCTACGACGGGATT
B11: GGGCCGC (DNA:RNA)
RNA: B1 RNA with U26G, U27G, A28C, G29C
DNA 1: CAATCTGAATTCCGGTCTCCC
DNA 2: TGGTGGCTACGACGGGATT
B12: CCAUCCG (DNA:RNA)
RNA: GGGAGACCGGAAUUCAGAUUGUCCCCAUCCGUUAAAUCCCGUCGUAGCCACCA
DNA 1: CAATCTGAATTCCGGTCTCCC
DNA 2: TGGTGGCTACGACGGGATT
B13: AUCCCGG (DNA:RNA)
RNA: B12 RNA with C25A, C26U, A27C, U28C, C30G
DNA 1: CAATCTGAATTCCGGTCTCCC
DNA 2: TGGTGGCTACGACGGGATT
B14: CUGACUG (DNA:RNA)
RNA: B12 RNA with C26U, A27G, U28A, C30U
DNA 1: CAATCTGAATTCCGGTCTCCC
DNA 2: TGGTGGCTACGACGGGATT
B15: AAUUGGG (DNA:RNA)
RNA: B1 RNA with G25A, U26A, A28U, C31G
DNA 1: CAATCTGAATTCCGGTCTCCC
DNA 2: TGGTGGCTACGACGGGATT
B16: CAAAAGG (DNA:RNA)
RNA: B12 RNA with C26A, U28A, C29A, C30G
DNA 1: CAATCTGAATTCCGGTCTCCC
DNA 2: TGGTGGCTACGACGGGATT
B17: GCAAAUC (DNA:RNA)
RNA: B1 RNA with U26C, U27A, G29A, G30U
DNA 1: CAATCTGAATTCCGGTCTCCC
DNA 2: TGGTGGCTACGACGGGATT
B18: GUAUGGC (DNA:RNA)
RNA: B1 RNA with U27A, A28U
DNA 1: CAATCTGAATTCCGGTCTCCC
DNA 2: TGGTGGCTACGACGGGATT
B19: CCUGGUG (DNA:RNA)
RNA: B12 RNA with A27U, U28G, C29G, C30U
DNA 1: CAATCTGAATTCCGGTCTCCC
DNA 2: TGGTGGCTACGACGGGATT
B20: CCCAGCU (DNA:RNA)
RNA: B12 RNA with A27C, U28A, C29G, G31U
DNA 1: CAATCTGAATTCCGGTCTCCC
DNA 2: TGGTGGCTACGACGGGATT
B21: CAUUAUC (DNA:RNA)
RNA: B12 RNA with C26A, A27U, C29A, C30U, G31C
DNA 1: CAATCTGAATTCCGGTCTCCC
DNA 2: TGGTGGCTACGACGGGATT
B22: GAUAAGU (DNA:RNA)
RNA: B1 RNA with U26A, G29A, C31U
DNA 1: CAATCTGAATTCCGGTCTCCC
DNA 2: TGGTGGCTACGACGGGATT
B23: AUAACUA (DNA:RNA)
RNA: B12 RNA with C25A, C26U, U28A, C30U, G31A
DNA 1: CAATCTGAATTCCGGTCTCCC
DNA 2: TGGTGGCTACGACGGGATT
B24: CCAGGUG (DNA:RNA)
RNA: B12 RNA with U28G, C29G, C30U
DNA 1: CAATCTGAATTCCGGTCTCCC
DNA 2: TGGTGGCTACGACGGGATT
B25: CGGCGUG (DNA:RNA)
RNA: B12 RNA with C26G, A27G, U28C, C29G, C30U
DNA 1: CAATCTGAATTCCGGTCTCCC
DNA 2: TGGTGGCTACGACGGGATT
B26: GUCAGGG (DNA:RNA)
RNA: B1 RNA with U27C, C31G
DNA 1: CAATCTGAATTCCGGTCTCCC
DNA 2: TGGTGGCTACGACGGGATT
B27: GCAUUAC (DNA:RNA)
RNA: B12 RNA with C25G, C29U, C30A, G31C
DNA 1: CAATCTGAATTCCGGTCTCCC
DNA 2: TGGTGGCTACGACGGGATT
B28: AAAAUCC (DNA:RNA)
RNA: B12 RNA with C25A, C26A, U28A, C29U, G31C
DNA 1: CAATCTGAATTCCGGTCTCCC
DNA 2: TGGTGGCTACGACGGGATT
B29: GCCGAGU (DNA:RNA)
RNA: B1 RNA with U26C, U27C, A28G, G29A, C31U
DNA 1: CAATCTGAATTCCGGTCTCCC
DNA 2: TGGTGGCTACGACGGGATT
B30: GCAUAAG (DNA:RNA)
RNA: B12 RNA with C25G, C29A, C30A
DNA 1: CAATCTGAATTCCGGTCTCCC
DNA 2: TGGTGGCTACGACGGGATT
B31: UGCUCGU (DNA:RNA)
RNA: B12 RNA with C25U, C26G, A27C, C30G, G31U
DNA 1: CAATCTGAATTCCGGTCTCCC
DNA 2: TGGTGGCTACGACGGGATT

target: T1, RBFOX1 RRM RbFoxmut (Fox-RRM*); assay: EMSA; HiTS-Eq, 1 nM pool, 10 min; buffer printed only for the single-RNA assays: 10 mM Tris pH 7.5, 150 mM NaCl, 3.4 mM EDTA, 0.001% NP-40, 30 C; conditions: tags: His6 N-terminal (pET28a); label: 5' 32P
Method in brief: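 A pool of RNA with 7 randomized nucleotides, 5′-radiolabelled and with DNA-annealed flanks, was equilibrated at 1 nM for 10 min in 50 µL with purified RbFox RRM, wild type or mutant, across increasing protein concentrations. Free RNA was separated by 8% native PAGE, excised, reverse-transcribed, barcoded by PCR and sequenced. Relative association constants were obtained from read-count changes of each RNA species versus the control reaction and normalised to the cognate motif.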

Point of comparison: B27, binding signal 0.0935 KA relative to UGCAUGU. Against it:
- B1 — lower, 0.074 KA relative to UGCAUGU
- B2 — lower, 0.0537 KA relative to UGCAUGU
- B3 — higher, 0.122 KA relative to UGCAUGU
- B4 — lower, 0.0903 KA relative to UGCAUGU
- B5 — lower, 0.0779 KA relative to UGCAUGU
- B6 — higher, 0.287 KA relative to UGCAUGU
- B7 — higher, 0.126 KA relative to UGCAUGU
- B8 — lower, 0.0611 KA relative to UGCAUGU
- B9 — higher, 0.0951 KA relative to UGCAUGU
- B10 — higher, 0.109 KA relative to UGCAUGU
- B11 — higher, 0.116 KA relative to UGCAUGU
- B12 — higher, 0.103 KA relative to UGCAUGU
- B13 — lower, 0.0557 KA relative to UGCAUGU
- B14 — higher, 0.162 KA relative to UGCAUGU
- B15 — lower, 0.0731 KA relative to UGCAUGU
- B16 — lower, 0.0588 KA relative to UGCAUGU
- B17 — lower, 0.0754 KA relative to UGCAUGU
- B18 — higher, 0.237 KA relative to UGCAUGU
- B19 — higher, 0.109 KA relative to UGCAUGU
- B20 — lower, 0.083 KA relative to UGCAUGU
- B21 — higher, 0.095 KA relative to UGCAUGU
- B22 — lower, 0.0905 KA relative to UGCAUGU
- B23 — higher, 0.126 KA relative to UGCAUGU
- B24 — higher, 0.126 KA relative to UGCAUGU
- B25 — higher, 0.205 KA relative to UGCAUGU
- B26 — lower, 0.093 KA relative to UGCAUGU
- B28 — lower, 0.0353 KA relative to UGCAUGU
- B29 — higher, 0.123 KA relative to UGCAUGU
- B30 — higher, 0.139 KA relative to UGCAUGU
- B31 — higher, 0.205 KA relative to UGCAUGU
